Measurements as given in the supplement of paper PMC12217912.
This is one part of the list. The full chains were built here from the parent and the listed change. Inactive controls read about 0.05.

B1: TEV protease; numbered along this chain (parent)
chain: MGESLFKGPRDYNPISSSICHLTNESDGHTTSLYGIGFGPFIITNKHLFRRNNGTLVVQSLHGVFKVKDTTTLQQHLVDGRDMIIIRMPKDFPPFPQKLKFREPQREERICLVTTNFQTKSMSSMVSDTSCTFPSGDGIFWKHWIQTKDGQCGSPLVSTRDGFIVGIHSASNFTNTNNYFTSVPKNFMELLTNQEAQQWVSGWRLNADSVLWGGHKVFMVKPEEPFQPVKEATQL

Variants of: B1
Experiment: raw area under fraction-flipped curve 0-4 h after induction (AUC4h, not background-subtracted), DNA-recorder readout of cleavage of the substrate (dimensionless); higher = more cleavage of the substrate by the protease variant
Details: temperature: 34 °C; time window: 0-4 h after rhamnose induction
Procedure: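 In vivo DNA recorder in E. coli TOP10(DE3) ΔrhaA at 34 °C. Each TEVp single-site mutant (parent TEVp 0) is paired with a single-site variant of the 7-mer TEVs (canonical ENLYFQ|S). The substrate sits between flexible linkers in a Bxb1-sfGFP-TEVs-SsrA fusion, so cleavage stabilises Bxb1 and speeds flipping of a recombination array, read by NGS. The value is the raw area under the fraction-flipped curve over 0-4 h after rhamnose induction (AUC4h), with ≥20 reads per time point. It is not background-subtracted; inactive controls average about 0.047.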
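Note: Bxb1 expression induced with 0.2% (w/v) L-rhamnose at OD600 near 0.5, cultures sampled hourly, flipped fraction per protease–substrate barcode pair counted by paired-end Illumina sequencing.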

| Variant | area with substrate ENLYFQA | area with substrate ENLYFQC | area with substrate ENLYFQD | area with substrate ENLYFQH | area with substrate ENLYFQI | area with substrate ENLYFQK | area with substrate ENLYFQL | area with substrate ENLYFQM | area with substrate ENLYFQN | area with substrate ENLYFQP | area with substrate ENLYFQR | area with substrate ENLYFQS | area with substrate ENLYFQT | area with substrate ENLYFQV | area with substrate ENLYFQW | area with substrate ENLYFQG | area with substrate ENLYFQE | area with substrate ENLYFQF | area with substrate ENLYFQQ | area with substrate ENLYFQY |
| --- | --- | --- | --- | --- | --- | --- | --- | --- | --- | --- | --- | --- | --- | --- | --- | --- | --- | --- | --- | --- |
| F65M | 0.0805 | 0.102 | 0.0843 | 0.0884 | 0.064 | 0.0666 | 0.044 | 0.0844 | 0.076 | 0.0568 | 0.0628 | 0.0964 | 0.0607 | 0.0689 | 0.0648 | – | – | – | – | – |
| V67C | 0.0804 | – | 0.0577 | 0.0585 | – | 0.0607 | 0.0652 | 0.111 | 0.0705 | 0.0617 | 0.0572 | 0.105 | 0.0093 | – | – | 0.0953 | – | – | – | – |
| K68C | 0.107 | – | 0.0679 | 0.0635 | 0.0566 | 0.0599 | 0.0685 | – | 0.096 | 0.0546 | – | 0.109 | – | 0.0595 | – | 0.0828 | 0.067 | 0.0518 | 0.0697 | 0.0927 |
| K68V | 0.0942 | 0.105 | 0.0656 | 0.0568 | – | 0.0462 | 0.0747 | 0.13 | 0.0752 | – | 0.0467 | 0.0976 | 0.086 | – | 0.0682 | – | – | – | – | 0.0755 |
| D69T | 0.0983 | 0.0917 | 0.0579 | 0.0743 | 0.067 | – | 0.0457 | – | 0.0646 | – | – | 0.089 | 0.0626 | 0.0632 | 0.0348 | 0.0822 | – | – | – | 0.0669 |
| T70H | 0.0641 | 0.0631 | – | 0.072 | 0.0689 | 0.0705 | 0.0447 | – | – | – | – | 0.0729 | 0.0514 | 0.061 | 0.0534 | 0.0622 | 0.0255 | 0.0709 | – | 0.0594 |
| T70Q | 0.0492 | – | 0.059 | 0.075 | – | – | – | – | – | 0.0712 | 0.0624 | 0.0821 | 0.0556 | 0.0782 | – | 0.0603 | 0.067 | – | 0.067 | 0.0607 |
| T71P | 0.107 | 0.104 | – | – | – | – | 0.0494 | 0.0885 | – | – | 0.0554 | 0.0885 | – | – | – | 0.101 | – | – | – | 0.0645 |
| L73S | 0.0614 | 0.0701 | 0.0617 | – | – | 0.0584 | – | – | 0.0339 | 0.028 | 0.0542 | 0.0619 | 0.0512 | – | – | 0.0657 | – | – | – | 0.0523 |
| L73T | 0.0653 | 0.0739 | 0.0606 | 0.0552 | – | 0.0602 | 0.0809 | 0.0796 | 0.0651 | 0.0594 | 0.0638 | 0.073 | 0.0633 | 0.0478 | 0.0604 | 0.0804 | – | – | 0.0614 | – |
| Q74C | 0.105 | – | – | 0.0812 | 0.0571 | 0.065 | 0.0553 | 0.116 | 0.0275 | 0.0432 | 0.0591 | 0.0938 | – | 0.058 | 0.0504 | – | 0.067 | – | – | – |
| Q74R | 0.0761 | 0.0989 | – | 0.0656 | – | 0.0738 | 0.0575 | – | 0.0802 | 0.122 | 0.0495 | 0.0909 | 0.0531 | 0.0678 | 0.0656 | 0.0935 | – | 0.0633 | – | 0.0416 |
| D79A | 0.082 | – | 0.0769 | 0.0846 | – | – | 0.0589 | 0.0998 | 0.0593 | – | – | 0.0904 | 0.0658 | – | 0.0577 | – | – | – | – | – |
| D79H | 0.0749 | 0.0589 | 0.0679 | 0.0698 | – | 0.0634 | 0.0623 | 0.091 | 0.0526 | 0.0625 | 0.0613 | 0.0933 | 0.0529 | 0.0463 | – | – | – | – | – | 0.0924 |
| R81M | 0.0832 | – | – | 0.0823 | 0.0521 | 0.059 | 0.0632 | 0.0891 | 0.0686 | 0.0529 | 0.0591 | 0.0871 | 0.0567 | 0.0517 | 0.041 | – | – | – | – | 0.0632 |
| D82R | 0.0798 | 0.095 | – | – | – | – | – | 0.0613 | – | 0.0692 | – | 0.0605 | – | – | – | 0.0616 | – | – | – | – |
| M83G | 0.0528 | 0.067 | – | – | – | 0.0645 | 0.0514 | 0.0695 | 0.0468 | 0.0474 | 0.0421 | 0.0565 | 0.0462 | 0.0486 | 0.0535 | – | – | – | – | – |
| I86D | 0.0313 | 0.0524 | – | – | 0.0388 | – | 0.0176 | 0.0353 | – | – | 0.0433 | 0.0392 | – | – | 0.0497 | 0.0327 | – | – | – | 0.0443 |
| I86W | 0.0584 | 0.0725 | 0.0713 | 0.028 | 0.0501 | 0.072 | 0.0624 | 0.0621 | – | 0.0522 | 0.0569 | 0.0728 | 0.0591 | 0.0498 | 0.0617 | 0.0702 | 0.0595 | 0.0475 | – | 0.0637 |
| P89H | 0.069 | – | 0.0712 | – | 0.0588 | – | 0.0491 | 0.0669 | 0.0686 | – | 0.0584 | 0.0914 | 0.0627 | – | 0.0505 | – | – | – | 0.0698 | 0.0459 |
| D91F | 0.137 | 0.0924 | 0.0632 | 0.0719 | 0.0343 | 0.0622 | 0.0518 | – | 0.0866 | 0.0706 | 0.064 | 0.0934 | 0.0647 | 0.0639 | 0.0824 | 0.0859 | – | – | – | – |
| D91W | 0.0508 | 0.0933 | 0.0756 | – | 0.095 | 0.0705 | – | 0.0908 | – | 0.0635 | 0.0617 | 0.0969 | 0.0562 | – | 0.0782 | 0.099 | 0.0856 | 0.0789 | – | 0.0731 |
| F92E | 0.075 | 0.104 | 0.0659 | – | – | 0.0672 | 0.0588 | 0.064 | – | 0.0525 | 0.0595 | 0.0856 | – | 0.0628 | 0.051 | 0.0805 | – | – | – | – |
| K98M | 0.105 | – | – | 0.0898 | – | – | 0.0707 | 0.0771 | 0.0543 | 0.0665 | 0.0597 | 0.106 | – | – | 0.07 | 0.111 | – | – | – | 0.106 |
| K98T | 0.101 | 0.11 | 0.0716 | – | 0.0638 | – | 0.0634 | 0.0861 | 0.0978 | 0.0431 | 0.0557 | 0.106 | 0.0711 | – | 0.0693 | 0.0926 | – | 0.0798 | 0.0785 | – |
| K100H | 0.0903 | 0.128 | 0.0642 | 0.0973 | – | 0.0585 | – | 0.0807 | 0.0809 | 0.0665 | 0.0664 | 0.0962 | 0.0634 | 0.0648 | 0.0648 | 0.108 | – | – | – | 0.0726 |
| F101K | 0.0636 | 0.0441 | – | – | 0.0463 | 0.0614 | – | – | – | 0.0499 | – | 0.0605 | – | 0.0513 | – | 0.0323 | – | – | – | – |
